The values that follow come from patent publication US9045526B2 (THE REGENTS OF THE UNIVERSITY OF MICHIGAN, priority 2011, dated 2015).

Experiment [1] concerns the target T1, kappa-opioid receptor (KOR) (Homo sapiens, UniProt P41145).
T1 construct: expressed in transfected cells
As to the kind of experiment: Ki, nM | (KOR). From the text: (§1) Table printed on a drawing sheet, FIGURE 4
Head of the field: Ki, nM | (KOR)
(§2) First copying reader's note: Each result cell holds the value together with its ± error.

Experiment [2] has as its target T2, mu-opioid receptor (MOR) (Rattus norvegicus, UniProt P33535).
T2 construct: expressed in transfected cells; host or cells: C6 rat glioma cells (C6-MOR), stably transfected
Kind of experiment: Ki, nM | (MOR).
Source text: as §1
Head of the field: Ki, nM | (MOR)
as §2

The target in experiment [3] is T3, delta-opioid receptor (DOR) (Rattus norvegicus, UniProt P33533).
T3 construct: expressed in transfected cells; host or cells: C6 rat glioma cells (C6-DOR), stably transfected
Kind of experiment: Ki, nM | (DOR).
Source text: as §1
Head of the field: Ki, nM | (DOR)
as §2

Each structure is given as a SMILES string. Numbered stars: 1 amine (or outer) side, 2 acyl side, 3 side chain; on linkers, the order of the positions; unused ones are H or OH. Bridge positions count the residues as written; N and C are the ends. Square brackets hold non-standard residues; d marks the D form. Peptide text beside a SMILES is read from it. Dmt = Cc1cc(O)cc(C)c1C[C@H](N)C(=O)O; dPen = CC(C)(S)[C@@H](N)C(=O)O; Aic = NC1(C(=O)O)Cc2ccccc2C1; CH2CH2 = C(C[*:2])[*:1]

By Ki is commonly meant a dissociation constant, usually derived from enzyme kinetics or from competition with a known ligand. Read a high Ki as lower affinity.

T2 sequence (P33535 whole entry, looked up): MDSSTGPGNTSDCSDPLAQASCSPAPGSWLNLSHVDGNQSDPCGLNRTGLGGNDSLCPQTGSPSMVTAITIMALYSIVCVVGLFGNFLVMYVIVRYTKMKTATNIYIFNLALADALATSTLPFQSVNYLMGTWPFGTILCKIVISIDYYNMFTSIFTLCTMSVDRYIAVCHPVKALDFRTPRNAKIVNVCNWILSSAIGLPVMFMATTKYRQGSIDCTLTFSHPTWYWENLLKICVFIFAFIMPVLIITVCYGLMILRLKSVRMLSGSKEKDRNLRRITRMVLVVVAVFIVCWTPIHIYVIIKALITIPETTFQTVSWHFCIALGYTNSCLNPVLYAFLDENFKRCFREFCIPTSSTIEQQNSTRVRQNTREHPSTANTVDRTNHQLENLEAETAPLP
T1 sequence (P41145 whole entry, looked up): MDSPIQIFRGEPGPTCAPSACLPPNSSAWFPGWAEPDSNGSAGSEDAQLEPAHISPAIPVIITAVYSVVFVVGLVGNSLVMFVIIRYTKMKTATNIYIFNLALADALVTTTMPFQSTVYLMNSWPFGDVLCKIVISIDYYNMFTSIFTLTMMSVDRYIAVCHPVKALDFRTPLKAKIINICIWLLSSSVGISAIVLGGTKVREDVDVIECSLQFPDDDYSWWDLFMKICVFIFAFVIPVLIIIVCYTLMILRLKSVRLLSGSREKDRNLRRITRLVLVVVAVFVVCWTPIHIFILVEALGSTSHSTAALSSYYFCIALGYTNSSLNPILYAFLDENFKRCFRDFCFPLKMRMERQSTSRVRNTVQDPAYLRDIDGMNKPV
T3 sequence (P33533 whole entry, looked up): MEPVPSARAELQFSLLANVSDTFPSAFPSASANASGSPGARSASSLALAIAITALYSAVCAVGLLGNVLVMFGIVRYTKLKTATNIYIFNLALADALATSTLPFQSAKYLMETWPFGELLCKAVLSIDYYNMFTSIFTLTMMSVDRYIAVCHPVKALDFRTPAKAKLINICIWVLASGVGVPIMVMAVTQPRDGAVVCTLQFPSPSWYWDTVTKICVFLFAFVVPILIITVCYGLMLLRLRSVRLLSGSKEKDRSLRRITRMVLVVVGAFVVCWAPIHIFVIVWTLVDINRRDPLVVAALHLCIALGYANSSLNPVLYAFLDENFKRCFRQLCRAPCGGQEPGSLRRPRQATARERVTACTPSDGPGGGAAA

In experiment [1], `Cc1cc(O)cc(C)c1C[C@H](N)C(=O)N[C@@H]1CSCCSC(C)(C)[C@H](C(=O)N[C@H](C(N)=O)[C@@H](C)O)NC(=O)C2(Cc3ccccc3C2)NC1=O` [VRP-21] (H-[Dmt][dC][Aic][dPen]T-NH2; linker 2-4 via CH2CH2; N-terminus assumed) gave an inhibitory constant (Ki) of 607 ± 56 nM. Consider `Cc1cc(O)cc(C)c1C[C@H](N)C(=O)N[C@@H]1CSCCSC(C)(C)[C@H](C(=O)N[C@@H](CCCNC(=N)N)C(N)=O)NC(=O)C2(Cc3ccccc3C2)NC1=O` [VRP-24] (H-[Dmt][dC][Aic][dPen]R-NH2; linker 2-4 via CH2CH2), for which the Ki in experiment [2] amounted to 0.43 ± 0.06 nM; in experiment [3], 3.6 ± 0.3 nM.
